Variants at the floor of the assay are shown more often than the library holds them.
B1: TPR 5TU (parent)
chain: GGAUCUUCUCGAUCUAACAAAAAAGACAAAUCUGCCACAAAGCUUGAGAGCAUCUUCGGAUGCAGAGGCGGCAGCCUUCGGUGGCGCGAUAGCGCCAACGUUCUCAACUAUGACACGCAAAACGCGUGCUCCGUUGAAUGGAGUUUAUCAUG

Variants of: B1
Assay: polymerase ribozyme fitness, log enrichment relative to wild type (log ratio); higher = more active; in vitro selection for triplet polymerase activity
Method in brief: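 Mutant libraries of both subunits of a heterodimeric triplet polymerase ribozyme were PCR-built, transcribed, and selected once in triplicate, with frozen incubation at −7 °C and capture of gel-excised extended constructs on streptavidin beads before RT-PCR. Illumina sequencing of input and output libraries was filtered to genotypes with ≥10 input reads and ≥1 read per output. Fitness is the logarithm of genotype enrichment over wild-type enrichment, using inverse-variance-weighted replicate averages. The logarithm is base 2.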

Variant | polymerase ribozyme fitness (log ratio)
GGAUCUUCUCGAUCUAACAAAAAAGACAAAUCUGCCACAAAGCUUGAGAGCAUCUUCGCAUGCAGAGGCGGCAGCCUUCGGUGGCGCGAUAGCGUCAACGUUCUCAACUGUGACAAGCAAAACGCGUGCUCCGUUGAAUGGAGUUUAUCAUG [G59C C95U A110G C116A] | -3.2
GGAUCUUCUCGAUCUAACAAAAAAGACAAAUCUGCCACAAAGCUUGAGAGCAUCUUCGCAUGCAGAGGCGGCAGCCUUCGGUGGCGCGAUAGCGCCAAUGUUCUCAACUAUGACACGCCAAACGCGUGCUCCGUUGCAUGGAGUUUAUGAUG [G59C C99U A119C A137C C149G] | ≤ -4.2
GGAUCUUCUCGAUCUAACAAAAAAGACAAAUCUGCCACAAAGCUUGAGAGCAUCUUCGCAUGCAGAGGCGGCAGACUUCGGUGACGCGAUAGCGCCAACGUUCUCAACUAUGACACGCAAACCGCGUGCUCCGUUGAAUGGAGUUUAUCAUG [G59C C75A G84A A122C] | ≤ -4.2
GGAUCUUCUCGAUCUAACAAAAAAGACAAAUCUGCCACAAAGCUUGAGAGCAUCUUCGCAUGCAGAGCCGGCAGCCUUUGGUGGCGCGAUAGCCCCAACGUUCUCAACUAUGACACGCAAAACGCGUGCUCCGUAGAAAGGAGUUUAUCAUC [G59C G68C C79U G94C U135A U139A G152C] | ≤ -4.2
GGAUCUUCUCGAUCUAACAAAAAAGACAAAUCUGCCACAAAGCUUGAGAGCAUCUUCGCAUGCAGAGGCGGCAGCCUUCGGUGGCGCGAUAGCGCCUACGUUCUCAACUAUGACACGCAAAACGCGUGCUCCGUUGAAUGGAGUUUAUCAUG [G59C A97U] | -0.431
GGAUCUUCUCGAUCUAACAAAAAAGACAAAUCUGCCACAAAGCUUGAGAGCAUCUUCGCAUGCAGAGGCGGCAGUCUUCGGUGGCGCGAUAGCGCCAUCGUUCUCAACUAUGACACGCAAAACGCGUGCUCCGUUGAAUGGAGUUUAUCAUG [G59C C75U A98U] | -0.152
GGAUCUUCUCGAUCUAACAAAAAAGACAAAUCUGCCACAAAGCUUGAGAGCAUCUUCGCAUUCAGAGGCGGCAGCCUUCGGUGGCAUGAUAGCGCCAACGUUCUCAACUAUGACACGCAAAACGCGUGCUCCGUUGAAUGGAGUUUAUCAUG [G59C G62U G86A C87U] | ≤ -4.2
GGAUCUUCUCGAUCUAACAAAAAAGACAAAUCUGCCACAAAGCUUGAGAGCAUCUUCGCAUGCUGAGGCGGCAGUCUUCGGUGGCGCGAUAGCGCCAACGUUCUCAACUAUGACACGCAAAACGCGUGCUCUGUUGAAUGGAGUUUAUCAUG [G59C A64U C75U C132U] | ≤ -4.2
GGAUCUUCUCGAUCUAACAAAAAAGACAAAUCUGCCACAAAGCUUGAGAGCAUCUUCGCAUGCAGAAGCGGCAGCCUUCGGUGGAGCGAUAGCGCCAACGUUCUCAACUAUUACACGCAAAACGCGUGCUCCGUUGAAUGGAGUUUAUCAUG [G59C G67A C85A G112U] | ≤ -4.2
GGAUCUUCUCGAUCUAACAAAAAAGACAAAUCUGCCACAAAGCUUGAGAGCAUCUUCGCAUGCAGAGGCGGCAGCCUUCGGUGGCGCGAUAGCGCCAACGUUUUCAACUAUGACACGCAAAACGCGUGCUCCGUUGAAUGGAGUUUAUCAUG [G59C C103U] | 0.229
GGAUCUUCUCGAUCUAACAAAAAAGACAAAUCUGCCACAAAGCUUGAGAGCAUCUUCGCAUGCGGAGGCGGCAGCCUUCGGUGGCGAGAUAGCGCCAACGUUCUCAACUAUGACUCGCAAAACGCGGGCUCCGUUGAAUGGAGUUUAUCAUG [G59C A64G C87A A115U U127G] | ≤ -4.2
GGAUCUUCUCGAUCUAACAAAAAAGACAAAUCUGCCACAAAGCUUGAGAGCAUCUUCGCAUGCAGAGGCGGCAGCCUUCGGUGGCGUGAUAGCUCGAACUUUCUCAACUAUGACACGCAAAACGCGUGCUCCGUUCAAUAGAGUUUAUCAUG [G59C C87U G94U C96G G100U G136C G140A] | ≤ -4.2
GGAUCUUCUCGAUCUAACAAAAAAGACAAAUCUGCCACAAAGCUUGAGAGCAUCUUCGCAUGCAGAGGCGGCAGCCUUCGGUGGCGCGAUAGGGCCUACGUUCUCAACUAUGACACGCAAAACGCGCGCUCCGUUGGAUGGAGUUUAUCAUG [G59C C93G A97U U127C A137G] | ≤ -4.2
GGAUCUUCUCGAUCUAACAAAAAAGACAAAUCUGCCACAAAGCUUGAGAGCAUCUUCGCAUGCAGAGGUGGCAGCCUUCGGUGGCGCGAUAGGGCCAACAUUCUCAACUAUGACACGCAAAACUCGUGCUCCGUUGAAUGGAGUUUAUCAUG [G59C C69U C93G G100A G124U] | ≤ -4.2
GGAUCUUCUCGAUCUAACAAAAAAGACAAAUCUGCCACAAAGCUUGAGAGCAUCUUCGCAUGCCGAGGCGGCAGCCUUCGGUGGCGCGAUAGCGCCAACGUUCUCAACUAUGACACGCAAAACGCGUGCUCCGUUGAAUGGAGUUUAUCAUG [G59C A64C] | ≤ -4.2
GGAUCUUCUCGAUCUAACAAAAAAGACAAAUCUGCCACAAAGCUUGAGAGCAUCUUCGCUUGCAGAGACGGCAGCCGUCGGUGGCGCGAUAGCCCCAACGUUCUCAACUUUGACACGCAAAACGCGUGCUCCGUUGAAUGGAGUUUGUCAUG [G59C A60U G68A U77G G94C A110U A147G] | ≤ -4.2
GGAUCUUCUCGAUCUAACAAAAAAGACAAAUCUGCCACAAAGCUUGAGAGCAUCUUCGCAUGCAGAGGCGGCAGCCUUCGGUGGCGCGAUAGCGGCAACGUUUUCAACUAUGACACGCAAAACGCAUGCUCCGUUGAAUGGAGUUUAUCAUG [G59C C95G C103U G126A] | -2.28
GGAUCUUCUCGAUCUAACAAAAAAGACAAAUCUGCCACAAAGCUUGAGAGCAUCUUCGCAUGCAGAGGCGGCUGCCUUCGGUGGCGCGAUAGCGCCAACGUUCUCAACUAUGACACGCAAAACGCGUGCUCCGUUACAUGGAGUUUAACAUG [G59C A73U G136A A137C U148A] | ≤ -4.2
GGAUCUUCUCGAUCUAACAAAAAAGACAAAUCUGCCACAAAGCUUGAGAGCAUCUUCGCAUGCAGAGGCGGCAGCCUUCGGUGGCGCGAUAGGGCCAACGUUCUCAACUAUGACACGCAAAACGCGUGCUCCGUUGAAUGGAGUUUAUCAUG [G59C C93G] | -2.98

Variant | polymerase ribozyme fitness (log ratio)
GGAUCUUCUCGAUCUAACAAAAAAGACAAAUCUGCCACAAAGCUUGAGAGCAUCUUCGCAUGCAGAGGCGGCAGCCUUCGGUGGCGCGAUAGUGCCAACGUUCUCAACUAUGACACGCAAAACGCGUGCUCCGUUGAAUGGAGUUUAUCAUG [G59C C93U] | -1.11
GGAUCUUCUCGAUCUAACAAAAAAGACAAAUCUGCCACAAAGCUUGAGAGCAUCUUCGCAUGCAGAGGCGGCAGCCUUUGGUGGCGCGAUAGCGCCAACGUUCUCAACUAUGACACGCAAAACGCGUGCUCCGUUGAAUGGAGUUUAUCAUG [G59C C79U] | -3.43
GGAUCUUCUCGAUCUAACAAAAAAGACAAAUCUGCCACAAAGCUUGAGAGCAUCUUCGCAUGCAGAGGCGGCAGCCUUCGGUGGCGCGAUAGCGACAACGUUCUCAACUAUGACACGCAAAACGCGUGCUCCGUUGAAUGGAGUUUAUCAUG [G59C C95A] | -0.188
GGAUCUUCUCGAUCUAACAAAAAAGACAAAUCUGCCACAAAGCUUGAGAGCAUCUUCGCAUGCAGAGGCGGCAGCCUUCGGUGGCGCGAUAGCGCAAACGUUCUCAACUAUGACACGCAAAACGCGUGCUCCGUUGAACGGGGUUUAUCAUG [G59C C96A U139C A142G] | ≤ -4.2
GGAUCUUCUCGAUCUAACAAAAAAGACAAAUCUGCCACAAAGCUUGAGAGCAUCUUCGCAUGCAGAGGCGGCAGCCUUCGGUGGCGCGAUAGCGCGAACGUUGUCAACUAUGAUACGCAAAACUCGUGCUCCGUCGAAUGGAGUUUAUCAUG [G59C C96G C103G C114U G124U U135C] | ≤ -4.2
GGAUCUUCUCGAUCUAACAAAAAAGACAAAUCUGCCACAAAGCUUGAGAGCAUCUUCGCAUGCAGAGGCGGCAGCCUUGGGUGGCGCGAUAGCGCCAACGUUCUCAACUAUGACACGCAAAACGCGUGCUCCGUUGUAUGAAGUUUAUCAUG [G59C C79G A137U G141A] | ≤ -4.2
GGAUCUUCUCGAUCUAACAAAAAAGACAAAUCUGCCACAAAGCUUGAGAGCAUCUUCGCAUGCAGAGGCGGCAGCCUUCGGUGGGGCGUUAACGCCAACGUUCUCAACUAUGACACGCAAAACGCGUGCUCCGUUGAAUGGAGUUUAUCAUG [G59C C85G A89U G92A] | ≤ -4.2
GGAUCUUCUCGAUCUAACAAAAAAGACAAAUCUGCCACAAAGCUUGAGAGCAUCUUCGCUUGCAGAGACGGCAGACUUCGGUGGCGCGAUAGCGCCAACGUUCUCAAAUAUGACACGCAAAACGCGUGCUCCGUUGAAUGGAGUUUAUCAUG [G59C A60U G68A C75A C108A] | -4.15
GGAUCUUCUCGAUCUAACAAAAAAGACAAAUCUGCCACAAAGCUUGAGAGCAUCUUCGCAUGCAGAGGCGGCAGCAUUCGGUGGCGCGAUAGCGCGAACGUUCUCAGCUAUGACACGCAAAACGCGUGCUCCGUUGAAUGGAGUUUAUCAUG [G59C C76A C96G A107G] | ≤ -4.2
GGAUCUUCUCGAUCUAACAAAAAAGACAAAUCUGCCACAAAGCUUGAGAGCAUCUUCGCAUGCAGAGGCGGCAGCCUUCGGUGGCGCGAUAGUGUCAACGUUCUCAACUAUGACACGCAAAACGCGUGCUCCGUGGAAUGGAGUUAAUCAUG [G59C C93U C95U U135G U146A] | ≤ -4.2
GGAUCUUCUCGAUCUAACAAAAAAGACAAAUCUGCCACAAAGCUUGAGAGCAUCUUCGCAUGCAGAGGCGGCAGCCUUCGGUGGCGCGUUACCGCCAACGUUCUCAACUAUGACACGCAAGACGCGUGCUCCGUUGAAUGGAGUUUAUCAUG [G59C A89U G92C A121G] | -2.45
GGAUCUUCUCGAUCUAACAAAAAAGACAAAUCUGCCACAAAGCUUGAGAGCAUCUUCGCAUGCAGAGGCGGCAGCAUUCGGUGGCGGGAUAGCGCCAACGUUCUCAACUAUGACACGCAAAACGCGUGCUCCGUUGAAUGGAGUUUAUCAUG [G59C C76A C87G] | ≤ -4.2
GGAUCUUCUCGAUCUAACAAAAAAGACAAAUCUGCCACAAAGCUUGAGAGCAUCUUCGCAUGGAGAGGGGGCAACCUUCGGUGGCGCGCUAGCGCCAACGUUGUCAACUAUGACACGCAAAACGCGUGCUCCGUUGAAUGCAGUUUAUCAUG [G59C C63G C69G G74A A89C C103G G141C] | ≤ -4.2
GGAUCUUCUCGAUCUAACAAAAAAGACAAAUCUGCCACAAAGCUUGAGAGCAUCUUCGCAUGCAGAGGCGGCAGCCUUCGGUGGCGCGUUAGCGCGAACGUUCUCAGCUAUGACACGCAAAACGCGUGCUCCGUUGAAUGGAGUUUAUCAUG [G59C A89U C96G A107G] | ≤ -4.2
GGAUCUUCUCGAUCUAACAAAAAAGACAAAUCUGCCACAAAGCUUGAGAGCAUCUUCGCAUGCAGAGGCGGCAGCCUUCGGUGGUGCGAUAGCGCCAACGUUCUCAACUAUGACACGCAAAACGCGUGCUCCGUUGAAUGGAGUUUAUCAUG [G59C C85U] | -0.507
GGAUCUUCUCGAUCUAACAAAAAAGACAAAUCUGCCACAAAGCUUGAGAGCAUCUUCGCAUGCAGACGCGGCAGCCUUCGGUGGCGCGAUAGCUCUAACGUUCUCAACUAUGACACGCAAAACGCGUGCUCCGUUGAAUGGAGUUUAUCAUG [G59C G67C G94U C96U] | ≤ -4.2
GGAUCUUCUCGAUCUAACAAAAAAGACAAAUCUGCCACAAAGCUUGAGAGCAUCUUCGCAUGCAGUGGCGGCAGCCUUCGGUGGCGUGAUAGCGCCAACGUGCUCAACUAUGACAAGCAAAACGCGUGCUCCGUUGAAUGGAGUUUAUCAUG [G59C A66U C87U U102G C116A] | ≤ -4.2
GGAUCUUCUCGAUCUAACAAAAAAGACAAAUCUGCCACAAAGCUUGAGAGCAUCUUCGCAUGCAGAGGCGGCAGCCUUCGGUGGCGAGAUAGCGCCAACGUUCUCAACUAUGACACGCAAAACGCGUGCUCCGUUGAAUGGAGUUUAUCAUG [G59C C87A] | ≤ -4.2
GGAUCUUCUCGAUCUAACAAAAAAGACAAAUCUGCCACAAAGCUUGAGAGCAUCUUCGCAUGCAGAGGCGGCGGCCUUCGGUGGCUCGAUAGCGCCAACGUUCUCAACUAUGACACGCAAAACGCGUGCUCCGUUGAAUGGAGUUUAUCAUG [G59C A73G G86U] | -2.26
